In patent US20210169936A1 (AFFIMED, published 2021):
Blank lines part the entries; values can stand above or below the binder they belong to.

Molecular target: T1, EpCAM on COLO 205 cells (UniProt P16422 24-314, limits assumed)
T1 sequence (looked up): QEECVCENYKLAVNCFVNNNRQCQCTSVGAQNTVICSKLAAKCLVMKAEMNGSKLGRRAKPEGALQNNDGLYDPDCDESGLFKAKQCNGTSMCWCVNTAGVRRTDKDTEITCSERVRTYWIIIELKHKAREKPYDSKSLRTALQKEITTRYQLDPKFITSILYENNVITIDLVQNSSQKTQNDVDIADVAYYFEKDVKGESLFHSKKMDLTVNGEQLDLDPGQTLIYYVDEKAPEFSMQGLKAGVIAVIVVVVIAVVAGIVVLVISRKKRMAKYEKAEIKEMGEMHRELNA
Assay: cell-based or functional assay

Efficacy [%] of target cell lysis at an E:T ratio of 5:1, COLO 205, NK cells preloaded, frozen and thawed: 51.7%
B1: EpCAM/NKp46 scFv-IgAb_73 (bispecific antibody)
heavy: QVQLVQSGAEVKKPGSSVKVSCKASGGTFSSYTISWVRQAPGQGLEWMGGIIPIFGTANYAQKFQGRVTITADESTSTAYMELSSLRSEDTAVYYCARGGSSGWWWGQGTLVTVSSASTKGPSVFPLAPSSKSTSGGTAALGCLVKDYFPEPVTVSWNSGALTSGVHTFPAVLQSSGLYSLSSVVTVPSSSLGTQTYICNVNHKPSNTKVDKKVEPKSCDKTHTCPPCPAPEFEGGPSVFLFPPKPKDTLMISRTPEVTCVVVAVSHEDPEVKFNWYVDGVEVHNAKTKPREEQYNSTYRVVSVLTVLHQDWLNGKEYKCKVSNKALPAPIEKTISKAKGQPREPQVYTLPPSREEMTKNQVSLTCLVKGFYPSDIAVEWESNGQPENNYKTTPPVLDSDGSFFLYSKLTVDKSRWQQGNVFSCSVMHEALHNHYTQKSLSLSPGGGGGSGGGGSGGGGSGGGGSGGGGSGGGGSDIQMTQSPASLSASVGETVTITCRVSENIYSYLAWYQQKQGKSPQLLVYNAKTLAEGVPSRFSGSGSGTQFSLKINSLQPEDFGSYYCQHHYGTPWTFGGGTKLEIKGGSGGSGGSGGSGGSGGSGGSEVQLQESGPGLVKPSQSLSLTCTVTGYSITSDYAWNWIRQFPGNKLEWMGYITYSGSTSYNPSLESRISITRDTSTNQFFLQLNSVTTEDTATYYCARGGYYGSSWGVFAYWGQGTLVTVSA
light: QSVLTQPPSASGTPGQRVIISCSGSHSNIGSNNVNWYQQLPGTAPKLLIYNNNQRPSGVPDRFSGSKSGTSASLAISGLQSEDESDYFCGTWDDSLNGPVFGGGTKLTVLGQPKAAPSVTLFPPSSEELQANKATLVCLISDFYPGAVTVAWKADSSPVKAGVETTTPSKQSNNKYAASSYLSLTPEQWKSHRSYSCQVTHEGSTVEKTVAPTECS

Efficacy [%] of target cell lysis at an E:T ratio of 5:1, COLO 205, NK cells preloaded, frozen and thawed: 101%
B2: EpCAM/CD16A scFv-IgAb_80 (bispecific antibody)
heavy: QVQLVQSGAEVKKPGSSVKVSCKASGGTFSSYTISWVRQAPGQGLEWMGGIIPIFGTANYAQKFQGRVTITADESTSTAYMELSSLRSEDTAVYYCARGGSSGWWWGQGTLVTVSSASTKGPSVFPLAPSSKSTSGGTAALGCLVKDYFPEPVTVSWNSGALTSGVHTFPAVLQSSGLYSLSSVVTVPSSSLGTQTYICNVNHKPSNTKVDKKVEPKSCDKTHTCPPCPAPEFEGGPSVFLFPPKPKDTLMISRTPEVTCVVVAVSHEDPEVKFNWYVDGVEVHNAKTKPREEQYNSTYRVVSVLTVLHQDWLNGKEYKCKVSNKALPAPIEKTISKAKGQPREPQVYTLPPSREEMTKNQVSLTCLVKGFYPSDIAVEWESNGQPENNYKTTPPVLDSDGSFFLYSKLTVDKSRWQQGNVFSCSVMHEALHNHYTQKSLSLSPGGGGGSGGGGSGGGGSGGGGSGGGGSGGGGSSYVLTQPSSVSVAPGQTATISCGGHNIGSKNVHWYQQRPGQSPVLVIYQDNKRPSGIPERFSGSNSGNTATLTISGTQAMDEADYYCQVWDNYSVLFGGGTKLTVLGGSGGSGGSGGSGGSGGSGGSQVQLVQSGAEVKKPGESLKVSCKASGYTFTSYYMHWVRQAPGQGLEWMGAIEPMYGSTSYAQKFQGRVTMTRDTSTSTVYMELSSLRSEDTAVYYCARGSAYYYDFADYWGQGTLVTVSS
light: B1 light

Efficacy [%] of target cell lysis at an E:T ratio of 5:1, COLO 205, NK cells not preloaded, antibody freshly added at 10 ug/mL: 33.5%
Efficacy [%] of target cell lysis at an E:T ratio of 5:1, COLO 205, NK cells preloaded, frozen and thawed: 22.2%
B3: EpCAM/NKG2D scFv-IgAb_75 (bispecific antibody)
heavy: QVQLVQSGAEVKKPGSSVKVSCKASGGTFSSYTISWVRQAPGQGLEWMGGIIPIFGTANYAQKFQGRVTITADESTSTAYMELSSLRSEDTAVYYCARGGSSGWWWGQGTLVTVSSASTKGPSVFPLAPSSKSTSGGTAALGCLVKDYFPEPVTVSWNSGALTSGVHTFPAVLQSSGLYSLSSVVTVPSSSLGTQTYICNVNHKPSNTKVDKKVEPKSCDKTHTCPPCPAPEFEGGPSVFLFPPKPKDTLMISRTPEVTCVVVAVSHEDPEVKFNWYVDGVEVHNAKTKPREEQYNSTYRVVSVLTVLHQDWLNGKEYKCKVSNKALPAPIEKTISKAKGQPREPQVYTLPPSREEMTKNQVSLTCLVKGFYPSDIAVEWESNGQPENNYKTTPPVLDSDGSFFLYSKLTVDKSRWQQGNVFSCSVMHEALHNHYTQKSLSLSPGGGGGSGGGGSGGGGSGGGGSGGGGSGGGGSQSALTQPASVSGSPGQSITISCSGSSSNIGNNAVNWYQQLPGKAPKLLIYYDDLLPSGVSDRFSGSKSGTSAFLAISGLQSEDEADYYCAAWDDSLNGPVFGGGTKLTVLGGSGGSGGSGGSGGSGGSGGSQVQLVESGGGLVKPGGSLRLSCAASGFTFSSYGMHWVRQAPGKGLEWVAFIRYDGSNKYYADSVKGRFTISRDNSKNTLYLQMNSLRAEDTAVYYCAKDRGLGDGTYFDYWGQGTTVTVSS
light: B1 light
